In a collection of fitness landscapes (doi:10.1126/science.1257360):
The list shows a part of the results.

B1: PhoQ; a variant is named by its letters at X, in order, P23837 (parent)
chain: MKKLLRLFFPLSLRVRFLLATAAVVLVLSLAYGMVALIGYSVSFDKTTFRLLRGESNLFYTLAKWENNKLHVELPENIDKQSPTMTLIYDENGQLLWAQRDVPWLMKMIQPDWLKSNGFHEIEADVNDTSLLLSGDHSIQQQLQEVREDDDDAEMTHSVAVNVYPATSRMPKLTIVVVDTIPVELKSSYMVWSWFIYVLSANLLLVIPLLWVAAWWSLRPIEALAKEVRELEEHNRELLNPATTRELTSLVRNLNRLLKSERERYDKYRTTLTDLTHSLKTPLXXLQXXLRSLRSEKMSVSDAEPVMLEQISRISQQIGYYLHRASMRGGTLLSRELHPVAPLLDNLTSALNKVYQRKGVNISLDISPEISFVGEQNDFVEVMGNVLDNACKYCLEFVEISARQTDEHLYIVVEDDGPGIPLSKREVIFDRGQRVDTLRPGQGVGLAVAREITEQYEGKIVAGESMLGGARMEVIFGRQHSAPKDE

Variants of: B1
Assay: enrichment ratio after two sorts for PhoP signalling (ratio (wild type AVST 3.29)); higher = more functional
Conditions: with PhoP (E. coli)

Variant	enrichment ratio
RYNP	≤ 0.25
DYQA	≤ 0.25
SYTR	≤ 0.25
WFVW	≤ 0.25
IYKM	≤ 0.25
RYPM	≤ 0.25
TQPQ	≤ 0.25
PAHY	≤ 0.25
LTEE	≤ 0.25
MYSH	≤ 0.25
LIWT	≤ 0.25
GAFL	≤ 0.25
GALL	13.8
DQSD	≤ 0.25
IQAG	≤ 0.25
LTGV	≤ 0.25
NPTG	≤ 0.25
HMLV	≤ 0.25
INCD	≤ 0.25
QYDN	≤ 0.25
EHPP	≤ 0.25
YFHQ	≤ 0.25
GNPP	≤ 0.25
LSHT	≤ 0.25
LKCP	≤ 0.25

Variant	enrichment ratio
EDHA	≤ 0.25
LSGA	≤ 0.25
VISC	≤ 0.25
DPDH	≤ 0.25
GYKC	≤ 0.25
VFTI	≤ 0.25
LLRP	≤ 0.25
RPLR	≤ 0.25
GMSN	≤ 0.25
DHWW	≤ 0.25
APSC	≤ 0.25
YFLH	≤ 0.25
RTQW	≤ 0.25
IYPI	≤ 0.25
IWWF	≤ 0.25
THAN	13.2
KRLL	≤ 0.25
RTIS	≤ 0.25
LCQK	≤ 0.25
QMAT	≤ 0.25
YHSH	0.303
AMVF	4.49
WVLH	≤ 0.25
HTCA	≤ 0.25
SHKR	≤ 0.25

Variant	enrichment ratio
LPFS	≤ 0.25
ARKN	≤ 0.25
WNCN	≤ 0.25
NPVQ	≤ 0.25
FQDP	≤ 0.25
NGGT	≤ 0.25
WEAI	≤ 0.25
SITM	22.9
LIGV	≤ 0.25
ESTD	≤ 0.25
LWNL	≤ 0.25
EQTL	≤ 0.25
YMRA	≤ 0.25
ASTR	≤ 0.25
LQGV	≤ 0.25
YILT	0.863
YERG	≤ 0.25
SEWA	≤ 0.25
EPRT	≤ 0.25
EMQA	≤ 0.25
LWTC	≤ 0.25
YAWA	≤ 0.25
KKCI	≤ 0.25
DKWQ	≤ 0.25
ILLH	≤ 0.25

Variant	enrichment ratio
LAVC	≤ 0.25
SDWR	≤ 0.25
FHKD	≤ 0.25
CSSA	≤ 0.25
RIMI	≤ 0.25
TVYK	3.76
WKRA	≤ 0.25
MCAT	4.13
EQRV	≤ 0.25
GSVY	≤ 0.25
GAGD	≤ 0.25
DKYM	≤ 0.25
NIKL	≤ 0.25
YQIS	≤ 0.25
AFED	≤ 0.25
AWSC	≤ 0.25
SILC	8.13
DYTN	≤ 0.25
NWIN	≤ 0.25
IMCR	≤ 0.25
GFPM	≤ 0.25
MYIV	≤ 0.25
HFNS	≤ 0.25
GAGF	≤ 0.25
KCAT	≤ 0.25

Variant	enrichment ratio
AYKR	≤ 0.25
WQVY	≤ 0.25
SMLV	8.65
SNMN	22.4
WDCG	≤ 0.25
ILHC	≤ 0.25
DPIF	≤ 0.25
DQYY	≤ 0.25
PEHQ	≤ 0.25
RDKY	≤ 0.25
KFCE	≤ 0.25
QICM	≤ 0.25
DWWQ	≤ 0.25
DNKV	≤ 0.25
EMWQ	≤ 0.25
FFNT	≤ 0.25
NEQE	≤ 0.25
WLFN	≤ 0.25
WFQH	≤ 0.25
EIFK	≤ 0.25
GYGI	≤ 0.25
DDTY	≤ 0.25
GTSV	0.71
KLPT	≤ 0.25
TCAN	25.6

Variant	enrichment ratio
QHQL	≤ 0.25
RALE	≤ 0.25
SEQV	4.26
SGFN	≤ 0.25
YQTV	≤ 0.25
VMHK	2.31
DKNT	≤ 0.25
FKND	≤ 0.25
NFII	≤ 0.25
QWRL	≤ 0.25
VGTF	≤ 0.25
KFPQ	≤ 0.25
LHTT	≤ 0.25
SSWV	0.518
GHPV	≤ 0.25
NSFI	≤ 0.25
FVYH	≤ 0.25
SRMM	1.64
GRIH	≤ 0.25
KYDC	≤ 0.25
YHTG	6.02
LWWY	≤ 0.25
AMSR	0.608
WHPF	≤ 0.25
HDDW	≤ 0.25

Variant	enrichment ratio
FPDP	≤ 0.25
HEMW	≤ 0.25
VKSF	≤ 0.25
LGME	≤ 0.25
VTCP	≤ 0.25
HDEF	≤ 0.25
LEPL	≤ 0.25
VPKK	≤ 0.25
ANAL	8.66
HQDQ	≤ 0.25
YRLG	≤ 0.25
GGDD	≤ 0.25
KWFA	≤ 0.25
PKPN	≤ 0.25
EMPH	≤ 0.25
FWIY	≤ 0.25
WNWD	≤ 0.25
LDYM	≤ 0.25
PWQH	≤ 0.25
LHLK	≤ 0.25
RFRI	≤ 0.25
RCGN	≤ 0.25
LSEP	≤ 0.25
DDGR	≤ 0.25
GDSQ	≤ 0.25

Variant	enrichment ratio
DMVE	≤ 0.25
WNVL	≤ 0.25
GAHY	≤ 0.25
WMVT	≤ 0.25
YCPM	≤ 0.25
RGHQ	≤ 0.25
LRHY	≤ 0.25
RPNR	≤ 0.25
FNRS	≤ 0.25
WPPT	≤ 0.25
VKPH	≤ 0.25
YIDP	≤ 0.25
VPCF	≤ 0.25
PWSL	≤ 0.25
KNWH	≤ 0.25
RVLK	≤ 0.25
ETPP	≤ 0.25
HCSP	≤ 0.25
IMMG	≤ 0.25
IGKK	≤ 0.25
